In paper PMC5836133:
The list shows a part of the results. At the low end of the ranking, values are background and their order means little.

What follows are sequences tested on T1, GST-NbGlk1(82-244) (assay: protein-binding microarray). Settings: NbGlk1 is a Golden2-like transcription factor of Nicotiana benthamiana; high values mean tight binding; most listed sequences are background and not binding sites; double strand, one strand shown.
T1 sequence: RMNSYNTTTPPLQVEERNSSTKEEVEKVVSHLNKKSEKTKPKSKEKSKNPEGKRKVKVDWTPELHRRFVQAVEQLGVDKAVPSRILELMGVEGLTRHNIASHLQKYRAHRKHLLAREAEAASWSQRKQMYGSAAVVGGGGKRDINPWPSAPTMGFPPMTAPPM
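Further: rank-based score ranging −0.5 to +0.5 with E above 0.45 taken as significant binding.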

Row | Sequence | binding signal
1 | AGCGCAGC | -0.307 E-score
2 | AGACGGGC | -0.191 E-score
3 | ACGTGCCC | -0.0766 E-score
4 | CACGCCTA | -0.0916 E-score
5 | AGCACTAA | -0.139 E-score
6 | AGATGTAT | 0.121 E-score
7 | ACTCGTGC | -0.127 E-score
8 | ATTGATGG | -0.188 E-score
9 | AAAGCGGG | -0.0831 E-score
10 | CACTAACC | -0.178 E-score
11 | ACCGAAAT | 0.338 E-score
12 | CACTCTCC | -0.0783 E-score
13 | AACCTAAG | -0.17 E-score
14 | AATTAGGC | 0.126 E-score
15 | ACCGGGCT | -0.279 E-score
16 | ACTTGATA | 0.132 E-score
17 | AGGGCTAA | -0.183 E-score
18 | CAAGTGAA | -0.119 E-score
19 | AAGCGGAT | 0.227 E-score
20 | AACGCATC | -0.0345 E-score
21 | AACAATAA | 0.137 E-score
22 | AGCGGTGA | -0.125 E-score
23 | AGTCCCCA | -0.247 E-score
24 | AGGGAAAG | -0.0816 E-score
25 | AAGACGTA | -0.0953 E-score

Row | Sequence | binding signal
26 | AATTGTAG | 0.0583 E-score
27 | AGCTCCAG | -0.264 E-score
28 | ATTGAGCA | -0.0458 E-score
29 | CACGGTTA | -0.0224 E-score
30 | ATGCGTAA | 0.21 E-score
31 | ACTTCTTG | -0.0327 E-score
32 | ACTTTGAA | 0.022 E-score
33 | ACTTGAAC | 0.0737 E-score
34 | ATTCTCGA | 0.308 E-score
35 | AATATAGG | 0.145 E-score
36 | CAGATCGG | 0.215 E-score
37 | AGAGTTGC | -0.0483 E-score
38 | AAGTGATG | 0.154 E-score
39 | AAGCAATC | 0.386 E-score
40 | ATCTGACG | 0.181 E-score
41 | CAGACAAA | 0.01 E-score
42 | ACTCCGTG | -0.194 E-score
43 | AATGTAAT | 0.353 E-score
44 | ATGGTTAG | -0.0381 E-score
45 | ACGAGTTA | -0.0647 E-score
46 | ACAGGAGC | -0.102 E-score
47 | AATGTACG | -0.0754 E-score
48 | AGGATCGG | 0.086 E-score
49 | ACTGAGCC | -0.289 E-score
50 | ACAGTAAG | 0.0152 E-score

Row | Sequence | binding signal
51 | AGGAGCAT | -0.231 E-score
52 | ATCTAAGG | 0.143 E-score
53 | ATTAAAGC | 0.00237 E-score
54 | ACTGGTCT | -0.205 E-score
55 | AACACTTG | -0.0396 E-score
56 | AATCCTGG | 0.363 E-score
57 | AGGTATAA | -0.0275 E-score
58 | ATAACCTA | -0.0859 E-score
59 | ATGTATGA | -0.042 E-score
60 | AATGTGGT | 0.0152 E-score
61 | ACGTGCCT | -0.292 E-score
62 | ACGAGAAT | 0.31 E-score
63 | AAAGTCTG | -0.0811 E-score
64 | ATTATTTG | 0.123 E-score
65 | ACTAGGGG | -0.124 E-score
66 | CAATCTGG | 0.414 E-score
67 | AGTGACTC | -0.23 E-score
68 | CACTCCAA | -0.123 E-score
69 | AGCAGCCG | -0.256 E-score
70 | AATTGAAA | 0.226 E-score
71 | ATGCGTAG | -0.0731 E-score
72 | AATTAGAC | -0.0551 E-score
73 | AACGTCGT | 0.0186 E-score
74 | CACCCGAC | -0.276 E-score
75 | AGCCAACC | -0.16 E-score

Row | Sequence | binding signal
76 | ATGTTCTG | 0.0456 E-score
77 | ACATGTAC | -0.0135 E-score
78 | ACGGCAAT | 0.171 E-score
79 | ATCTAAAT | 0.335 E-score
80 | ACACACCG | -0.053 E-score
81 | ACAACCCG | -0.172 E-score
82 | AAGTAAAG | -0.0314 E-score
83 | ATGTTTCC | 0.00555 E-score
84 | AAGGCCGA | -0.161 E-score
85 | ATTTTCAC | 0.34 E-score
86 | ACTATGGC | -0.224 E-score
87 | CACCTGCC | -0.262 E-score
88 | CAACTCTC | -0.084 E-score
89 | AGTCATTC | -0.063 E-score
90 | ACTTCGCA | -0.0412 E-score
91 | AATTTTGT | 0.23 E-score
92 | ACCTCTCT | -0.205 E-score
93 | AACTACGT | -0.0467 E-score
94 | CAGAGATG | 0.0342 E-score
95 | ATTCAAGG | -0.0986 E-score
96 | AGTTATGA | 0.0524 E-score
97 | ACGCTTAT | 0.0509 E-score
98 | AACTGCAT | -0.118 E-score
99 | ACCATTAT | 0.149 E-score
100 | ACGACGCA | -0.184 E-score

Row | Sequence | binding signal
101 | ACGCAATG | 0.0342 E-score
102 | ATTGCCCG | 0.123 E-score
103 | AAGTCAAT | -0.112 E-score
104 | ATAGCATA | 0.0342 E-score
105 | CAGACTAG | -0.0574 E-score
106 | AGTAGGTC | -0.265 E-score
107 | ATGAGTCG | -0.0316 E-score
108 | ACTTTCTG | 0.0519 E-score
109 | ATAGGTCA | -0.108 E-score
110 | AAACTTCA | -0.0414 E-score
111 | AGGTCTAT | -0.104 E-score
112 | ACCTCGTA | -0.0277 E-score
113 | CACGCCTG | -0.229 E-score
114 | AATCTCAT | 0.42 E-score
115 | AAAACTTT | 0.0231 E-score
116 | AGAATTTC | 0.267 E-score
117 | ATCGGCTC | -0.0233 E-score
118 | AGATCCAA | 0.262 E-score
119 | AAGGTCGC | -0.178 E-score
120 | AGTAAATG | 0.0793 E-score
121 | AAGATACG | 0.319 E-score
122 | AACTCGGT | -0.112 E-score
123 | AAGGTGAG | -0.138 E-score
124 | AATTCCGA | 0.0521 E-score
125 | AACTTATT | 0.0455 E-score

Row | Sequence | binding signal
126 | ATACAAAT | 0.281 E-score
127 | ATTGAACA | -0.0807 E-score
128 | CAACAGTC | -0.16 E-score
129 | AAGTTCCC | -0.16 E-score
130 | ATCTAGCG | 0.18 E-score
131 | AACCATAA | 0.115 E-score
132 | ATGTGGGA | 0.00897 E-score
133 | AGTACGAA | 0.187 E-score
134 | AGCGTAGA | 0.0679 E-score
135 | CACCAGGA | 0.0833 E-score
136 | AACCAGAC | -0.149 E-score
137 | ACCTGGCG | -0.239 E-score
138 | CAAATCCC | 0.315 E-score
139 | ACCAAGAT | 0.289 E-score
140 | AATAAAGG | 0.103 E-score
141 | AAGATAAA | 0.0898 E-score
142 | AGGCTCCA | -0.113 E-score
143 | AAAATTAT | 0.116 E-score
144 | AGCCACGA | -0.0211 E-score
145 | AATGTGCG | 0.00168 E-score
146 | AAGTACAA | 0.0312 E-score
147 | AAACCATA | 0.0967 E-score
148 | CAGACTGG | -0.157 E-score
149 | ACTACTAC | 0.0106 E-score
150 | AATGCGAT | 0.246 E-score

Row | Sequence | binding signal
151 | AAAGTTCG | 0.0661 E-score
152 | ATTCTAGA | 0.2 E-score
153 | ATGTAGGA | 0.112 E-score
154 | AACGCCTT | -0.19 E-score
155 | AGGGACAC | -0.262 E-score
156 | AGATACAA | 0.0386 E-score
157 | AGGAATTG | 0.0512 E-score
158 | AATTCCAA | 0.141 E-score
159 | AGCTCTCC | -0.312 E-score
160 | AGGGCCCA | -0.199 E-score
161 | ACCATTCT | 0.017 E-score
162 | AAAGGAGG | -0.208 E-score
163 | AAGAAATA | 0.222 E-score
164 | ATGAGGGG | -0.173 E-score
165 | AGCGCAGG | -0.181 E-score
166 | ACTTATAG | 0.0307 E-score
167 | ACTGATGA | -0.0176 E-score
168 | AGGATCTG | 0.337 E-score
169 | ATCCGCCG | 0.216 E-score
170 | AACAAAAT | 0.353 E-score
171 | AGTTGTTC | -0.0747 E-score
172 | ACAGGGGT | -0.0899 E-score
173 | AGTGAAAA | 0.128 E-score
174 | CACGCGCA | 0.0023 E-score
175 | ATAGCCTG | -0.145 E-score

Row | Sequence | binding signal
176 | ACCTTACG | -0.182 E-score
177 | AGTGGCAA | -0.0754 E-score
178 | ACGATAAA | 0.0605 E-score
179 | CACAAGCC | -0.278 E-score
180 | AAACCGTG | -0.0471 E-score
181 | AATTTTAT | 0.18 E-score
182 | AGAATATC | 0.435 E-score
183 | AATGCACA | 0.0611 E-score
184 | ATGACCCG | -0.154 E-score
185 | ACTCTGTC | -0.143 E-score
186 | AAGACTAG | -0.0102 E-score
187 | AATACAGT | -0.00366 E-score
188 | ATTTACTA | 0.185 E-score
189 | AGTTGTTA | 0.108 E-score
190 | AGAACTTA | -0.0216 E-score
191 | AGCGGCAT | -0.218 E-score
192 | ATACGTCG | 0.0921 E-score
193 | AAATCAAG | 0.318 E-score
194 | ATGGATCC | 0.164 E-score
195 | AGAGAGGA | 0.00572 E-score
196 | CAGACTGA | -0.0507 E-score
197 | AAAGGACG | -0.0719 E-score
198 | ACATTTAC | 0.0766 E-score
199 | AACCCTGC | -0.127 E-score
200 | ATGTCTTA | -0.0318 E-score

Row | Sequence | binding signal
201 | AGCGATTG | 0.168 E-score
202 | AGGGGGCC | -0.192 E-score
203 | AGACCTTA | -0.192 E-score
204 | AGACGCTA | -0.126 E-score
205 | AATGACTC | 0.00883 E-score
206 | CAAAGTCC | -0.242 E-score
207 | AAGCGCCC | -0.26 E-score
208 | CAAATGAC | 0.0196 E-score
209 | AAAGCCGC | -0.215 E-score
210 | CACACAGC | -0.0626 E-score
211 | CACAAAGC | -0.0957 E-score
212 | AAGCAGTA | 0.0483 E-score
213 | CAACTTAG | -0.0454 E-score
214 | ATCCACCC | 0.255 E-score
215 | ACATGTTA | -0.0491 E-score
216 | AAGCTACT | -0.233 E-score
217 | CACTGGGG | -0.216 E-score
218 | AGGAGTTG | -0.0633 E-score
219 | AACCGAGC | -0.253 E-score
